From ChEMBL document CHEMBL1157539, “Thousands of chemical starting points for antimalarial lead identification” (Nature, 2010)
The full ranking holds about 13,000 compounds; the median of “IFI” is about 4, and the highest 2% start at about 17. The list shows a part of the results.

Experiment: GSK_TCMDC: Inhibition Frequency Index (IFI). The number of non-kinase HTS assays where a compound showed > 50 % inhibition, expressed as a percentage of the number of such assays in which the compound was tested (-0 is zero)
Format: functional

Row | Structure (SMILES) | IFI
1 | COc1cccc(CN2CCCC(CCC(=O)Nc3ccc(C(F)(F)F)cc3)C2)c1O (stereo not given) | 2.44%
2 | CCCCCCN1CCCN(Cc2ccc(C(=O)Nc3ccc(CCC)cc3)cc2)CC1 | 16.8%
3 | Cc1ccc(NC(=O)c2ccc3ncccc3c2)cc1OC1CCN(CCC(C)C)C1 (stereo not given) | 1.64%
4 | CN(C)c1cc(C(=O)N[C@@H](Cc2ccccc2)[C@H](O)CNC2CCCCC2)cc2[nH]ccc12 | 3.88%
5 | CCOC(=O)c1c(NC(NC(=O)c2ccc(C(C)(C)C)cc2)C(Cl)(Cl)Cl)sc2c1CCCC2 (stereo not given) | 1.54%
6 | CS(=O)(=O)NCCCNCc1cccc(-c2ccc(-c3nc4ccccc4[nH]3)s2)c1 | 3%
7 | c1cc(CNC2CCCC2)cc(-c2ccc(CNc3ccc4ncccc4c3)cc2)c1 | 14.2%
8 | CC(C)(C)c1ccc(CN2CCC(CNC(=O)c3cc(-c4ccccc4)nc4ccccc34)CC2)cc1 | 3.17%
9 | CN(C(=O)c1ccc(Br)cc1)c1ccccc1[N+](=O)[O-] | -0%
10 | Nc1cc(-c2cc3c(OCc4ccccc4)cccc3[nH]2)ccn1 | -0%
11 | CCN(CC)CCN(Cc1ccc(-c2ccc(C(F)(F)F)cc2)cc1)C(=O)Cn1c(CCc2cccc(F)c2F)nc(=O)c2sccc21 | 12.6%
12 | CCn1c(-c2nc(-c3ccc4c(c3)OCO4)cnc2N)nc2cnccc21 | 12.3%
13 | Cc1sc2nc(CSc3ccccc3)nc(N3CCN(CC(=O)NC4CC4)CC3)c2c1C | 2.99%
14 | COc1cccc(C2CCN(CCCCNC(=O)c3ccc(NC(=O)c4ccc(Cl)cc4)cc3)CC2)c1 | 0.76%
15 | Nc1nc(N)c2c(ccc3c2ccn3Cc2ccc(F)cc2)n1 | 11.3%
16 | O=S(=O)(NCCN1CCCC1)c1cccc(-c2cccc(CNCc3ccsc3)c2)c1 | 9.8%
17 | CC1CN(Cc2ccccc2)CCN1c1ccc(NC(=O)c2ccc(F)cc2)cc1 (stereo not given) | -0%
18 | CC(C)NCc1cccc(-c2ccc(-c3nc4cc(C(F)(F)F)ccc4[nH]3)cc2)c1 | 3.85%
19 | CC(C)(C)OC(=O)n1cc(C2CCN(CCCC34CCCc5cccc(c53)NC4=O)CC2)c2ccncc21 (stereo not given) | 6.62%
20 | C=C[C@H]1CN(CCCCCCC)CC[C@H]1CCN(C)c1ccnc2ccc(OC)cc12 | 6.57%
21 | O=C(O)Cc1ccc(-c2c[nH]c3ncc(-c4cccc5ncccc45)cc23)cc1 | 1.89%
22 | CCN1CCC(N(CCCCCCCCc2ccc(C(F)(F)F)cc2)C(=O)Cn2c(CCc3cccc(F)c3F)cc(=O)c3ccccc32)CC1 | 8.51%
23 | O=C(NCCCCCN1CCC(c2c[nH]c3ccccc23)CC1)Nc1ccc(I)cc1 | 7.09%

Row | Structure (SMILES) | IFI
24 | Cc1cc2c(cc1C(F)(F)F)N(C(=O)Nc1cc(OCCN(C)C)cc(C(F)(F)F)c1)CC2 | 9.46%
25 | C[C@H](Cc1ccc(CCc2ccc(C[C@@H](C)NC[C@H](O)c3cccc(Cl)c3)cc2)cc1)NC[C@H](O)c1cccc(Cl)c1 | 21.6%
26 | COc1c(C2CCN(CCCCNC(=O)C=Cc3cc4cc(Cl)ccc4o3)CC2)ccc2c1CCCC2 | 5.43%
27 | COc1ccccc1-c1csc(C(=O)NCC2CCN(Cc3ccc(C(C)(C)C)cc3)C2)c1 (stereo not given) | 13.5%
28 | COC(=O)c1cc(NC(=O)Nc2ccc(Cn3ncc(N4CCCNCC4)c(Cl)c3=O)cc2)cc(C(=O)OC)c1 | 4.48%
29 | Cc1cccc2nc(-c3ccc(-c4cccc(NC(=O)c5cccc(C(N)=O)c5)c4)cc3)[nH]c12 | 7.02%
30 | O=C1NC(C(=O)Nc2ccccc2)C(c2ccccc2)S1 (stereo not given) | -0%
31 | CCCc1cc(OC)c(CC2c3cc(O)c(Cl)cc3CCN2C)cc1OC (stereo not given) | 2.8%
32 | O=C(Nc1ccc(Cl)cc1Cl)N[C@H]1CCN(CCCCCNC(=O)C2CC2c2ccc(Cl)c(Cl)c2)C1 (stereo not given in full) | 15.1%
33 | CC(=O)Nc1ccc(C(=O)Nc2ccc(-c3cccc(-c4nc5cc(F)ccc5[nH]4)c3)cc2)cn1 | 2.7%
34 | c1ccc2sc(-c3csc(Nc4ccncc4)n3)nc2c1 | 4.11%
35 | CC(C)(C)CC(=O)Nc1ccc(Nc2cc(-c3ccncc3)cc3ncc(C(N)=O)cc23)cc1 | 2.16%
36 | COCCNCc1cccc(-c2cccc(CNC3CCN(Cc4ccccc4)CC3)c2)c1 | 5.07%
37 | COc1cc2nc(SCC(C)C)n(CCCn3ccnc3)c(=N)c2cc1OC | 1.34%
38 | O=C(C=Cc1ccc(Cl)c(Cl)c1)NCCCCCN1CCCC(CCCNC(=O)c2cccs2)C1 (stereo not given) | 2.29%
39 | COc1ccccc1N1CCN(c2cccc(F)c2C#N)CC1 | 2.22%
40 | CN1CCN(c2ccnc3ccc(NC(=O)Nc4ccc(-c5ccncc5)c5ccccc45)cc23)CC1 | 4.41%
41 | N#Cc1ccc(N2CCN(C(=O)c3cccc(-c4noc(C(F)(F)F)n4)c3)CC2)nc1 | 3%
42 | Cc1noc(C)c1-c1cccc(CNCc2cccc(-c3ccc(-c4nc5cccc(C)c5[nH]4)cc3)c2)c1 | 4.85%
43 | Cc1cnc(Nc2ccccc2)nc1N[C@@H](CCCN)C(=O)Nc1ccccc1 | 2.38%
44 | Cc1ccc(CNc2cc(C(F)(F)F)nc(-c3ccc(S(C)(=O)=O)cc3)n2)cc1 | 2.24%
45 | CC(CNC(=N)c1cccc(C(=N)NCC(C)Oc2cccc(C3CCCCC3)c2)n1)Oc1cccc(C2CCCCC2)c1 (stereo not given) | 17.7%
46 | COCCNC(=O)C1CCN(C(c2ccc(Cl)cc2)c2ccc(Cl)cc2)CC1 | 1.39%

Row | Structure (SMILES) | IFI
47 | COCCn1c(Sc2ccc(C#N)c([N+](=O)[O-])c2)nnc1-c1ccc(N(C)C)cc1 | 1.43%
48 | O=C(Nc1cccc(-c2cccc(-c3nc4ccccc4[nH]3)c2)c1)Nc1ccc(Cl)c(Cl)c1 | 4%
49 | CC(C)N(Cc1ccccc1)C(=O)CN1C(=O)COc2ccc(S(=O)(=O)N3CCCCCC3)cc21 | 2.27%
50 | Oc1ccc(CCNc2nc(NCCOc3cccc4ccccc34)nc(N3CCNCC3)n2)cc1 | 16.4%
51 | CCSc1nc2sc3c(c2c(=O)n1-c1ccccc1)CCN(C)C3 | 1.43%
52 | CC(C)(C)SCC(O)Cn1c2ccc(Br)cc2c2cc(Br)ccc21 (stereo not given) | 2.19%
53 | O=C(Nc1ccc2[nH]c(-c3ccccc3)nc2c1)c1cc(-c2ccc3c(c2)OCCO3)n[nH]1 | 5.66%
54 | Cc1cc(N(C)C)nc(Nc2ccc(NC(=O)c3c(F)cccc3Cl)cc2)n1 | 1.89%
55 | O=C(/C=C/c1ccccc1Cl)Nc1ccc(Br)c(OCCN2CCN(CCN3CCCC3)CC2)c1 | 5.04%
56 | COc1c(Br)cc(Br)cc1-c1ccc(CN2C3CCCC2CCC3)[nH]1 | 6.82%
57 | NCC(=O)Nc1cccc(Nc2nccc(-c3c(-c4cccc(NC(=O)c5ccccc5)c4)nn4ccccc34)n2)c1 | 12.6%
58 | CC(=NNC(S)=NC(C)(C)C)c1ccccn1 | 3.79%
59 | Cc1cc2c(cc1C(F)(F)F)N(C(=O)Nc1cccc(C(=O)NC3CCN(Cc4ccccc4)CC3)c1)CC2 | 2.17%
60 | N#Cc1ccc(-c2ccc(C(=O)NCCCCN3CCC(c4nc5ccccc5[nH]4)CC3)cc2)cc1 | -0%
61 | Cn1nc(C(=O)N2CCC(c3[nH]ncc3Cc3ccccc3)CC2)c2ccccc2c1=O | -0%
62 | COc1ccc(Nc2nc(NCc3cccnc3)cc(-c3ccc(OC)cc3)n2)cc1 | 4.69%
63 | CCC(C)(C)c1ccc2nc(N)nc(N)c2c1C | 4.44%
64 | COc1ccc(-c2cc(Nc3nc(-c4cccc(Cl)c4)nc4ccccc34)ccn2)cc1 | 2.75%
65 | O=C(/C=C/c1ccc(Cl)c(Cl)c1)NCCCCCN1CC[C@H](NC(=O)c2ccc3c(c2)OCO3)C1 | 2.08%
66 | Cc1ccc2c(c1)nc(N)n2C[C@H](O)c1ccccc1 | 1.32%
67 | Cc1cc(N2CCCC2)nc(Nc2ccc(NC(=O)Nc3ccccc3)cc2)n1 | 16.2%
68 | Cc1ccc(S(=O)(=O)Nc2ccc(Nc3nccc(Nc4cccc5[nH]ncc45)n3)cc2)cc1 | 11.4%
69 | O=C(NCC1CCN(CCN2CCC(c3cn(CCO)c4ccccc34)CC2)CC1)c1ccc(-c2ccc(C(F)(F)F)cc2)cc1 | 10%

Row | Structure (SMILES) | IFI
70 | CCCCNc1ccc(C(=O)NC2CCN(C[C@H](O)c3ccnc4ccc(OC)cc34)CC2)cc1 | 1.47%
71 | CC(C)CNCc1ccc(OCc2cccc(COc3ccc(CNCC(C)C)cc3I)c2)c(I)c1 | 8.89%
72 | CS(=O)(=O)NCCCNCc1cccc(-c2cccc(-c3nc4cc(C(F)(F)F)ccc4[nH]3)c2)c1 | 0.99%
73 | Cc1ccccc1Oc1ccc(Nc2ccnc(Nc3cccc(C(N)=O)c3)n2)cc1C(F)(F)F | 7.19%
74 | CC(C)N1CCC(N(Cc2ccc(-c3ccc(C(F)(F)F)cc3)cc2)C(=O)Cn2c(SCc3cccc(F)c3F)cc(=O)c3c2CCC3)CC1 | 9.66%
75 | Cc1nc2ccccc2c(O)c1-c1ccc(Cl)cc1 | -0%
76 | CN(C)CCNCc1ncsc1-c1ccc2c(Nc3ccc(F)cc3Cl)ccnc2c1 | 1.5%
77 | COc1ccc(-c2cnc(N)c(-c3nc4cc(Br)ccc4[nH]3)c2)cc1 | -0%
78 | N=c1c2c(n(Cc3cccc(Cl)c3)c3c1CCC3)CCCC2 | 2.11%
79 | Cn1cncc1C(=O)Nc1ccc(-c2cccc(-c3nc4cc(F)ccc4[nH]3)c2)cc1 | 4.42%
80 | Nc1ccncc1C(=O)NCCCCN1CCN(c2nsc3ccccc23)CC1 | 2.42%
81 | COc1cc(NC(=O)/C=C/c2cc(F)cc(F)c2F)cc(OCCN2CCCCC2)c1 | 4.29%
82 | c1ccc2c(NCCCCCCCCNc3ccnc4ccccc34)ccnc2c1 | 8.27%
83 | CCCCN(Cc1cc(Cl)c(OC)c(OC)c1)c1ccc(C(O)(C(F)(F)F)C(F)(F)F)cc1 | 5.11%
84 | COc1ccc(CNc2ccnc3cc(OC)ccc23)cc1 | 0.72%
85 | COc1ccc2c(=NN=Cc3cccc(Cl)c3)cc(C)[nH]c2c1 | 2.8%
86 | Cc1noc(C)c1-c1cccc(CNCc2ccc(-c3ccc(-c4nc5cc(F)ccc5[nH]4)cc3)cc2)c1 | 8.91%
87 | O=C(/C=C/c1ccc(Cl)c(Cl)c1)NC1CCC(CN2CCC(c3nc4ccccc4s3)CC2)CC1 (stereo not given) | 3.57%
88 | O=C1C(=Cc2cc(Cc3ccccc3)ccc2O)SC(=S)N1Cc1ccccc1 | 2.31%
89 | Cc1onc(-c2c(F)cccc2Cl)c1C(=O)Nc1ccccc1I | 4.11%
90 | CCCNCc1ccc(-c2ccc(CN(Cc3ccc4c(c3)OCO4)C(=O)Cc3cccnc3)cc2)nc1 | 4.86%
